Results reported in PubChem BioAssay AID1508624 (National Center for Advancing Translational Sciences (NCATS), 2021).
Out of some 48,000 compounds screened, about 120 (0.25%) were called active. Inconclusive results (about 4%) are left out. The call rests on the fitted dose curve; in most records, active means well fitted activation curve with a large enough effect; inconclusive means small, poorly fitted or top-dose-only effect, or another doubt; inactive means no such curve, though single readings can be large or run the other way. This is one part of the list.

Test: Primary qHTS for Identification of Small Molecule Activators of Huntingtin-Antisense Promoter Activity; further: nearly all actives have a fitted effect of over 55% in size
Conditions: HEK293 HTT-AS promoter firefly luciferase reporter, 24 h; series mostly up to 57.5 µM; activity change, positive = activation: at the top concentration
In short: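 Quantitative HTS used concentration series of up to 57.5 uM final on HEK293 luciferase reporter cells, 24 h at 37 degrees C. Readout was Dual-Glo firefly luminescence.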

Activity change, positive = activation, inactive:
CCOc1ccc(CCNC(=O)c2ccc(CS(=O)Cc3ccc(Cl)cc3)o2)cc1 (centres undefined) -24.1%
CN1CCc2c(sc3c2C(=O)NC(c2ccc(OC(=O)c4ccc(Cl)cc4)cc2)N3)C1 (centres undefined) 6.66%
CC(=O)N1CCc2cc(Br)cc(S(=O)(=O)CCC(=O)NCCc3ccc(Cl)cc3)c21 -20.2%
Cc1ccc(CSc2nc3c(c(=O)[nH]2)C(c2cccc(F)c2F)CC(=O)N3)cc1 (centres undefined) -17.5%
COc1ccc(N2CCN(C(=O)c3nn(-c4ccc(C)cc4)c(=O)n(C)c3=O)CC2)cc1 -17%
COc1cccc(CNC(=O)CN(C)S(=O)(=O)c2ccc3c(c2)c(=O)n(C)c(=O)n3C)c1 -22.5%
CC(C)c1ccc(NC(=O)C(Cc2ccccc2)NS(=O)(=O)c2ccc3c(c2)CCC(=O)N3)cc1 (centres undefined) -22.8%
Cn1nnnc1SCCNCc1ccccc1Cl -4.99%
COc1cc2ncc3c(-c4ccccc4)nn(-c4ccc(C)cc4)c3c2cc1OC -10.6%
O=C(O)[C@@H](c1ccc(OCc2ccc3ccccc3n2)cc1)C1CCCC1 14%
Cc1ccc(OCC(=O)Nc2ccc3nc(SCC(=O)N(C)c4ccccc4)sc3c2)cc1 -42.6%
COc1ccc(NC(=O)c2sc3nc[nH]c(=O)c3c2C)cc1OC 3.67%
Cc1ccc2c(=O)cc(C(=O)Nc3nc4ccc(Cl)cc4s3)oc2c1 -8.17%
O=C(Nc1ccc(C(=O)OCc2cc(=O)n3c4c(sc3n2)CCCC4)cc1)c1cccc(F)c1 3.6%
Cc1cccc(C(=O)Nc2ccccc2OCc2cc(=O)n3c(C)csc3n2)c1 -12.4%
COc1ccc(CCNc2nc3c(c(=O)n(C)c(=O)n3C)n2Cc2ccccc2Cl)cc1OC -10.6%
O=C(Cn1cc(S(=O)(=O)Cc2ccccc2F)c2ccccc21)NCc1ccccc1 -14.4%
Cc1csc2nc(-c3cccc(NC(=O)c4c(F)cccc4F)c3)cn12 -12.5%
CCOc1ccc(Nc2c3c(nc4nncn24)CCC3)cc1 -32.9%
COc1cc(OC)cc(N2C(=O)CSC23C(=O)Nc2ccccc23)c1 (centres undefined) -0.738%
COc1ccc(C(=O)OCc2cc(=O)n3nc(C4CC4)sc3n2)cc1OC -20.3%
O=C(Nc1ccc(S(=O)(=O)N(Cc2ccccc2)c2ccccc2)cc1)c1ccc(F)cc1 -38.1%
O=C(CCCn1c(=O)c2ccccc2n(Cc2cccc(F)c2)c1=O)NCc1ccccc1Cl -4.93%
O=C(CCc1ccccc1)N1CCc2c([nH]c3ccccc23)C1c1ccc(F)cc1 (centres undefined) -31.5%
Cc1cc2oc(C(=O)Nc3c(C)n(C)n(-c4ccccc4)c3=O)cc(=O)c2cc1C 12.3% [at 11.5 µM, percent change from vehicle, -100% = no light]
CN1C(=O)c2ccccc2Sc2ccc(NC(=O)c3ccc(C#N)cc3)cc21 -44.8%
COC(=O)C(CCSC)NC(=O)c1cc2c(n(-c3ccccc3)c1=O)CC(C)(C)CC2=O (centres undefined) -7.58%
CCOC(=O)Cn1c(=O)n(-c2ccc(Cl)cc2)c2nc(-c3ccc(Cl)cc3)nc(C(N)=O)c21 -5.95%
Cc1nn(C(C)(C)C)c(OC(=O)c2c(F)cccc2F)c1Sc1ccccc1 -28.5%
COc1cc(CNc2ccc3[nH]c(=O)[nH]c3c2)cc(Cl)c1OCc1ccc(F)cc1 -13.2%
COc1ccc(NC(=O)CN(c2ccc(C)cc2)S(=O)(=O)c2cccs2)cc1 -3.17%
Cc1cccc(NS(=O)(=O)c2ccc3c(c2)CCCN3C(=O)C2CCC2)c1C -16.8%
Cc1cc2c(cc1S(=O)(=O)Nc1cccc(Cl)c1C)OCCN2C -27.7%
COc1ccc(-c2nc3ccccc3o2)cc1NC(=O)c1ccc(-c2cccc(Cl)c2C)o1 1.48%
Cc1ccc(Cl)cc1N1CCN(C(=O)COCc2cc(-c3ccc4c(c3)OCO4)on2)CC1 -11.1%
Cc1c(-c2nc(-c3ccc4c(c3)OCO4)no2)nnn1-c1cccc(C(F)(F)F)c1 -0.678%
COc1cccc(NC(=O)C2CCN(c3nnc(-n4c(C)ccc4C)s3)CC2)c1 6.36%
Cc1ccc(CNC(=O)C2CCCN(Cc3nc(-c4cccc(C)c4)oc3C)C2)cc1 (centres undefined) -33.6%
c1ccc(OCc2ccc(CCCN3CCOCC3)cc2)cc1 2.35%
O=c1cc(O)c(Cl)c[nH]1
Cc1ccc2ccc(Cl)cc2n1 -2.11%
CCN(CC)CCNC(=O)c1ccc2c(=O)n3nc(Nc4ccccc4)sc3nc2c1 -9.74%
CC1=C(C(=O)Nc2cccc(C(F)(F)F)c2)C2(CCN(C(C)C)CC2)OC1=O -0.832%
CCCNC(=O)CSc1cn(CC(=O)N2CCCCCC2)c2ccccc12 -22.1%
O=C(CSc1nc2sc3c(c2c(=O)[nH]1)CCCC3)Nc1ccccc1F -20.6%
CCOc1ccc(-c2nnc(SCC(=O)Nc3cccc(Cl)c3C)o2)cc1 -75.7%
Cc1ccc(NC(=O)CCn2cnc3onc(-c4ccc(F)cc4)c3c2=O)c(Br)c1 -1.46%
CC(C)Oc1ccc(CNS(=O)(=O)c2ccc(-c3cc(C(F)(F)F)on3)s2)cc1 -2.29%
Cc1ccc2nc(CN3CCN(S(=O)(=O)c4ccc(F)cc4)CC3)oc2c1 -15.5%
Cc1ccc2oc(C(=O)Nc3ccc(S(=O)(=O)Nc4nc(C)cc(C)n4)cc3)cc(=O)c2c1 -5.06% [at 11.5 µM, percent change from vehicle, -100% = no light]
COc1ccc(CCNC(=O)CCn2c(=O)c3ccccc3n(Cc3ccccc3C)c2=O)cc1OC -11.9%
Cc1ccc2nc(-c3ccco3)c(Nc3ccc4c(c3)OCCO4)n2c1 12.6%
COc1ccc(Cn2c(CCC(=O)Nc3ccccc3OC)nc3cccnc32)cc1 -14.8%
CC(=O)Nc1ccc(NC(=O)C2Cc3ccccc3N2C(=O)c2ccccc2)cc1 (centres undefined) -9.01%
COc1cccc2[nH]c(C(=O)NCc3ccc4c(c3)CCN4C(=O)c3ccc(F)cc3)cc12 -37%
CCc1c(C)nc2nc(-c3ccccc3)nn2c1NCc1ccc(C)cc1 -25.3%
COc1ccc(CNC(=O)c2ccc(-c3nc(CS(=O)c4ccc(C)cc4)c(C)o3)cc2)cc1 (centres undefined) -30.2%
COc1ccc2c(c1)c(=O)c(C(=O)c1ccc(Cl)cc1)cn2CC(=O)Nc1ccc2c(c1)OCCO2 -6.56%
CC(C)OCCCn1c(=O)c2ccccc2n2c(-c3ccccc3F)nnc12 -21.6%
Cc1oc2ccc(O)c(CN3CCCC(C)C3)c2c1C(=O)Nc1ccccc1 (centres undefined) -17.6%
O=C1CC2(CCCC2)CC(=O)N1CCCCN1CCN(c2ncccn2)CC1 -9.55%
O=C(CSc1cn(CCNC(=O)c2c(F)cccc2F)c2ccccc12)Nc1ccccc1F -10%
Cc1cc(C)c(NC(=O)Cc2ccc(-n3c(C)nc4cccnc43)cc2)c(C)c1 -36.1%
CCOc1cc(C2C(C(=O)OC)=C(C)NC3=C2C(=O)c2ccccc23)cc(Br)c1OCC (centres undefined) -6.07%
COc1ccc(CNC(=O)CS(=O)(=O)c2cccc3nsnc23)cc1 -17.3%
Cc1ccc(OC(=O)CSc2nnc(-c3cccs3)o2)c(C)c1 -8.69%
CC1=C(C(=O)OC2CCCCCC2)C(c2ccc(Cl)cc2)CC(=O)N1 (centres undefined) -29%
COc1ccc(Cl)cc1C(=O)NCc1nc(-c2cccc(C)c2)no1 26.5% [at 11.5 µM, percent change from vehicle, -100% = no light]
O=C(c1ccc([N+](=O)[O-])cc1)N1c2ncnn2C2(CCCCC2)[C@@H]2CCCC[C@@H]21 -12.4%
CCOc1ccccc1CNc1nc2nc(C)c(CC(=O)OC)c(=O)n2[nH]1 0.62%
Cc1cccc(-c2nc(C)c(CCNC(=O)C(=O)Nc3ccc(C)c(C)c3)s2)c1 -1.11%
CN/C(=C\[N+](=O)[O-])NCCSCc1csc(CN(C)C)n1 0.149%
O=C(CSc1nc(=O)[nH]c2c1CCC2)NCc1ccc(F)cc1 -2.97%
Cc1cc(C)c(/C=C2\C(=O)Nc3ccccc32)[nH]1 12.3%
Cc1ccc(-n2ncc3c(N4CCN(Cc5ccccc5)CC4)ncnc32)cc1 0.536%
COc1ccc(Cl)cc1S(=O)(=O)N1CCN(C(=O)c2cc(-c3ccc(Br)cc3)n[nH]2)CC1 -38.5%
Cc1cccc(C(=O)Nc2ccc(S(=O)(=O)N3CCCCC3c3cccnc3)cc2)c1 (centres undefined) -16.3%
Cc1ccc2nc(-c3c[nH]c4ccccc34)c(Nc3ccc(F)cc3)n2c1 16.6%
Cc1ccc(CNC(=O)C(C)n2c(=O)cc(-c3ccccc3)c3c(C)nn(C)c32)cc1 (centres undefined) -11.9%
O=C(CCS(=O)(=O)c1cccc2nonc12)Nc1ccc(F)cc1F -7.77%
COc1ccc(Br)cc1CNC(=O)Cn1ncn2nc(-c3cccs3)cc2c1=O 1.3%
Cc1oc(-c2ccccc2Cl)nc1CSc1nncn2c1cc1occc12 -2.43%
COc1ccccc1N1CCN(C(=O)c2ccc3c(c2)CCN3S(=O)(=O)c2ccccc2)CC1 -30.4%
Cc1ccc(-c2nnn3c2nc(NCc2ccc4c(c2)OCO4)c2ccccc23)cc1 2.53%
COc1ccc2c(Sc3ccccc3)c(C(=O)NCc3cc(Br)ccc3OC)[nH]c2c1 -9.01%
O=C(CC(c1cccs1)N1Cc2ccccc2C1=O)Nc1cccc(F)c1 (centres undefined) -35%
CCCn1ccc2c(OCC(=O)Nc3ccc(OC)c(OC)c3)cccc2c1=O -40.6%
Cc1ccc(OCC(=O)Nc2nc(-c3ccc(Br)cc3)ns2)cc1 -23%
COc1ccccc1CNC(=O)c1ccc(CSc2nc3ccncc3n2Cc2cccc(F)c2)cc1 -22.8%
O=C(NOC[C@H](O)CO)c1ccc(F)c(F)c1Nc1ccc(I)cc1F -3.37%
O=C(NCCc1ccc(F)cc1)C(=O)NCC(c1cccs1)S(=O)(=O)c1ccccc1 (centres undefined) -32.3%
COc1ccc(C)cc1NC(=O)N(C(C)C)C1CCN(C(C)=O)CC1 -5.45%
Cc1ccc([C@@H]2O[C@H](CO)[C@@H](O)[C@H](O)[C@@H]2O)cc1Cc1ccc(-c2ccc(F)cc2)s1 -23.6%
COc1ccc(C(C)=O)cc1CSc1nc(Nc2ccc(F)c(F)c2)c2ccccc2n1 -40.2%
